# The campaign covered roughly 310,000 compounds. About 2,200 (0.71%) showed an effect of 50% or more. The effect is printed as a negative number. The list shows a part of the results.
# Target: human ether-à-go-go-related gene (hERG) potassium channel (human, UniProt Q12809)
# Assay: primary screen, population patch clamp on CHO cells stably expressing hERG
# Chain of human ether-à-go-go-related gene (hERG) potassium channel (Q12809 whole entry, looked up): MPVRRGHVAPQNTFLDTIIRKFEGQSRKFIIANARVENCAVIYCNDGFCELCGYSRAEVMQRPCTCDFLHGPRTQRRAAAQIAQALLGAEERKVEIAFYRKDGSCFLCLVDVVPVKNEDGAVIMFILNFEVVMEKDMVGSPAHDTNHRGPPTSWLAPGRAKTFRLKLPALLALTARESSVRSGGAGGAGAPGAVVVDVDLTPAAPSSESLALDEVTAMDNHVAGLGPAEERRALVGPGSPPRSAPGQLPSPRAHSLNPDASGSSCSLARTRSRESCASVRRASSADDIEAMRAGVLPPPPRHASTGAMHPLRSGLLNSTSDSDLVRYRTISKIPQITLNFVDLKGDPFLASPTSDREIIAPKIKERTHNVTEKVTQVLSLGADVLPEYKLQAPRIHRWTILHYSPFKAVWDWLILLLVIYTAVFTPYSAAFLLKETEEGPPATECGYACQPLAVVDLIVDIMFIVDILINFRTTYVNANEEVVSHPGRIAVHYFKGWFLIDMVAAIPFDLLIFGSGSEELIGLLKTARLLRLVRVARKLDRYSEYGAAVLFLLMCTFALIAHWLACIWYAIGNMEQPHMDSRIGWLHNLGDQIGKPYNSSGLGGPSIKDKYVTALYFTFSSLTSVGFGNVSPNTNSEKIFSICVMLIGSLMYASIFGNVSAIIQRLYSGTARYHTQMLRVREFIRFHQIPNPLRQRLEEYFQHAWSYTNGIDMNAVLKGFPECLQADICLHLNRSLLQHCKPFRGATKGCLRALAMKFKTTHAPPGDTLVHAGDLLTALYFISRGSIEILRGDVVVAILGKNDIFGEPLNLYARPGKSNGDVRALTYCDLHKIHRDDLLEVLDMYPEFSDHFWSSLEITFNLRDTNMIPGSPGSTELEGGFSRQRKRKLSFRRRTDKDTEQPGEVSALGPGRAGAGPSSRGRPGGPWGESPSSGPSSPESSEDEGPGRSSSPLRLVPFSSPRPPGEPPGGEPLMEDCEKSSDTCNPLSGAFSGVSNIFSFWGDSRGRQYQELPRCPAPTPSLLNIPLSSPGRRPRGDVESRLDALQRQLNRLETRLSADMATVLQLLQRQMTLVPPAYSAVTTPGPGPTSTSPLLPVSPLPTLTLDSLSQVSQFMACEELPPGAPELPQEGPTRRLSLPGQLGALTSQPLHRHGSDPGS
row,Compound,"hERG current change (%, negative = inhibition) at 1uM [%]"
1,C/C(=N\NC(=O)COc1ccc([N+](=O)[O-])cc1)c1ccco1,-7.63
2,COc1cc2c(cc1OC)C(C)N(C(C)=O)CC2 (centres unmarked),3.77
3,CCOCCCNC(=S)N1CCC(C(=O)c2ccc3c(c2)OCCO3)CC1,-3.48
4,OCCCCO,9.62
5,Cc1ccc(N(Cc2ccc(C(=O)NN=C3CCN(C)CC3)cc2)S(C)(=O)=O)cc1C,9.53
6,O=C(NCC1CCCN1S(=O)(=O)c1cccs1)c1cccc(F)c1 (centres unmarked),19.4
7,CCN(CC(=O)Nc1ccc(C(C)=O)cc1)CC(=O)Nc1ccccc1C(F)(F)F,16.2
8,Oc1ccc(/C=C/c2nc(-c3ccccc3O)n(-c3ccccc3)n2)cc1,-1.25
9,CCOc1ccc(N2C(=O)c3cccnc3C2Nc2ccc(Cl)cc2)cc1 (centres unmarked),14.2
10,CCCOc1cccc(C(=O)NCCNC(=O)c2ccco2)c1,18.6
11,CCCN1CCN(C(=O)c2cn(CC(C)C)c(=O)c3cc(OC)c(OC)cc23)CC1,1.26
12,CC1=C(C(=O)Nc2ccccc2)C(c2cccc([N+](=O)[O-])c2)Nc2nc3ccccc3n21 (centres unmarked),2.42
13,COc1cccc(C2=NOC(C(=O)N3CCc4ccccc4C3)C2)c1 (centres unmarked),5.71
14,O=C1c2ccc(-c3ccc4c(c3)C(=O)N(CCCO)C4=O)cc2C(=O)N1CCCO,6.96
15,O=C(Cn1cnc2ccccc2c1=O)Nc1ccc(S(=O)(=O)N2CCCC2)cc1,7.5
16,O=C(Nc1ccc2oc(=O)ccc2c1)c1ccc(-c2cccc(Cl)c2)o1,12.3
17,Cc1cc(NC(=O)CN2CCCCC2)no1.O=C(O)C(=O)O,17.4
18,Cn1cc(SCC(=O)NCC2CCCO2)c2ccccc21 (centres unmarked),-12
19,CN(C)c1ccc(/C=N/n2c(-c3cccnc3)n[nH]c2=S)cc1,12.3
20,Cc1ccccc1Cn1cc(NC(=O)c2nc3ncccn3n2)cn1,-7.99
21,CC1(c2ccc(Cl)cc2Cl)NC(=O)N(CC(=O)Nc2cccnc2Cl)C1=O (centres unmarked),11.4
22,COc1cc(OC)c(NC(=O)c2ccc3c(SCC(=O)O)c4c(nc3c2)CCCC4)cc1Cl,16.7

row,Compound,"hERG current change (%, negative = inhibition) at 1uM [%]"
1,NC(=O)CSc1nnc(-c2ccc(S(=O)(=O)N3CCOCC3)cc2)n1Cc1ccccc1,-0.797
2,Cc1cnc(NC(=O)[C@H](C)N2C(=O)C3CCCCC3C2=O)s1 (some centres unmarked),17.5
3,COc1ccc(Cl)cc1NC(=O)C(C)OC(=O)c1ccc(NS(=O)(=O)c2ccc3[nH]c(=O)[nH]c3c2)cc1 (centres unmarked),12.8
4,COc1ccc(CNCCc2c[nH]c3ccccc23)c(OC)c1OC.O=C(O)C(=O)O,14.7
5,CC(C)Cn1c(-c2cccs2)nc2ccccc21,0.916
6,CCn1nc(C)cc1C(=O)N1CCCC(C(=O)c2ccc(OC)cc2C)C1 (centres unmarked),9.69
7,O=C(CCc1ccccc1)N1CCN(c2ccccn2)CC1,1.99
8,CCOc1ccc(S(=O)(=O)NCCC(=O)NCC2CCCO2)cc1 (centres unmarked),15.9
9,COC(=O)COc1ccc(S(=O)(=O)Nc2ccc3c(c2)OCO3)cc1,12.9
10,COc1cc(NC(=O)c2ccccc2Cl)c2ncccc2c1,1.95
11,Cc1ccnc(NC(=O)CCC(=O)N(CC(=O)NC(C)(C)C)Cc2ccc3c(c2)OCO3)c1,7.87
12,CCOC(=O)c1cc(-c2cccs2)nc2onc(C)c12,11.1
13,O=C(NC(=S)Nc1ncccn1)c1ccc(Cl)cc1Cl,7.59
14,O=C(Cn1cccn1)N1CCCC(Nc2ccc(F)c(F)c2)C1 (centres unmarked),-15.6
15,NC(=O)c1ccsc1NC(=O)c1ccc(S(=O)(=O)N2CCCCC2)cc1,3.14
16,COc1ccc(C2CC(c3c(O)cc(C)oc3=O)=NCCS2)c(OC)c1 (centres unmarked),6.26
17,Cc1nc(N2CCN(c3ccccc3O)CC2)c2c(-c3ccccc3)csc2n1,13.1
18,CCOc1cc(N2CCOCC2)c(OCC)cc1NC(=O)c1ccc2ncsc2c1,9.61
19,Cc1ccc(/C=C/S(=O)(=O)NCC(=O)OCC(=O)Nc2ccc(C(N)=O)cc2)cc1,-6.35
20,O=C1/C(=C/c2cccs2)SC(=S)N1CCC(=O)N1CCCCC1CCO (centres unmarked),13.9
21,CC(=O)Nc1ccc(S(=O)(=O)N(C)CC(=O)OCC(=O)Nc2cc(C)on2)cc1,7.17
22,COc1ccc(S(=O)(=O)Nc2ccc(F)c(F)c2)cc1C(=O)N1CCOCC1,13.1

# — PMC4336329 (PLoS ONE, 2015)
